# Experimental data reported in ChEMBL document CHEMBL4888484, “Replenishing the malaria drug discovery pipeline: Screening and hit evaluation of the MMV Hit Generation Library 1 (HGL1) against asexual blood stage Plasmodium falciparum ,using a nano luciferase reporter read-out” (2022).
# Where “and” joins values, the source holds several entries; their conditions need not be identical. Equal entries are not always repeated. The whole screen tested about 150,000 compounds, of which about 540 (0.36%) showed an effect of 50% or more. This is one part of the list.
# System: Plasmodium falciparum
# Assay: Primary screen in NF54 nanoGlo assay, in single point, at 2uM, 72h; a lower Z score goes with more inhibition
# Assay type: functional, Erythrocyte
# Details: timepoint 72 hour
SMILES,% Inhibition [%],Z score,% Inhibition (2 µM)
CCc1ncoc1C(=O)N(C)CCc1ccccc1C,-3,0.3,
COC(=O)C12CCCC1CN(Cc1ccccc1NC(C)=O)C2 (centres undefined),0,0.04,
Cc1ccc(Oc2nc(-c3ccccc3)nc3ccsc23)cc1,-7,0.96,
CCn1cc(Br)cc1C(=O)N(C)CC(F)(F)F,-7,0.78,
COc1ccccc1OCC(=O)N(Cc1ccc(-c2ccc(Cl)cc2)o1)[C@H]1CCS(=O)(=O)C1,-24,3.14,
NS(=O)(=O)c1ccccc1CNC(=O)N1CC2(CCOCC2)C1,6,-1.06,
CCCC[C@@H](CN)NC(=O)c1cnn(-c2ncccc2Cl)c1C(F)(F)F,-7,0.88,
Cc1cc(C(=O)N[C@H]2CCO[C@@H]2c2c(C)nn(C)c2C)cc(C)c1F,-6,1.05,
CCS(=O)(=O)NCCN1c2ccccc2OC[C@@H]1C,1,-0.22,
O=C(c1ncccc1F)N1CCC(O)(Cc2ccncc2)CC1,-7,0.93,
CNS(=O)(=O)N1CCCc2ccccc2CC1,-5,0.88,
CCc1[nH]c2c(CNC(=O)[C@H](C)n3cncn3)cc(F)cc2c1C,12,-1.61,
CN(C)C[C@H]1CCN(Cc2[nH]c3ccccc3c2Cl)C1,-13,2.42,
Cc1ccc2[nH]c(C3CN(S(=O)(=O)c4ccc5c(c4)OCCO5)C3)nc2c1,-17,3.26,
Cc1ccc(NC(=O)C(F)(F)F)cc1Br,-1,0.08,
CCN1CCN(Cc2cc(C)cc(CN3C[C@H]4CC[C@@H](C3)[C@H]4O)c2C)CC1,-24,2.29,
COc1ccccc1OCCN1C[C@@H](C(=O)Nc2ccc(F)c(F)c2F)CC1=O,2,-0.22,
COCCC1(CN[C@@H](C)c2ncc(Br)cc2Cl)CC1,-4,0.41,
Fc1ccccc1C1(c2nc([C@H]3CCOC3)no2)CC1,4,-0.53,
N#Cc1cn(-c2ccc(NC(=O)CC[C@H]3CCCOC3)cc2)nc1N,-15,2.41,
CCC(COC)NC(C)c1ccc(=O)[nH]n1 (centres undefined),-12,2.34,
CCOC(=O)C1CCCCN1C(=O)CC1(c2ccccc2OC)CC(=O)N(C2CCCC2)C1=O (centres undefined),-6,1.14,
CN(C)C(=O)c1cnc(N(C)C)nc1[C@H]1CCN(Cc2ccccc2)C1,-4,0.52,
N#CCCN(Cc1ccccc1)C(=O)C1(c2ccccc2)CCCC1,-8,1.1,
C[C@H]1CCN(c2cc(C(=O)N3CCC(C)(N4CCOCC4)CC3)ccn2)C1,0,0.06,
c1ccc(COc2ccc(CN3CC(c4nc(-c5ccsc5)no4)C3)cc2)cc1,-23,2.65,
Cc1c(Cl)ccc(NC(=O)NC[C@@H](O)CO)c1Cl,-12,1.15,
O=C(Oc1ccc(Cl)cc1)c1ccc2snnc2c1,-15,2.01,

SMILES,% Inhibition [%],Z score,% Inhibition (2 µM)
Cc1nc(CC[C@H]2CCCN2C(=O)C2CCCCC2)no1,-1,0.15,
c1ccc2c(c1)CCN(c1nccc(-c3ccsc3)n1)C2,-16,2.4,
CCCN(CCO)CC(=O)N1CCC(C)CC1,-4,0.62,
Cn1ncc2c1CCC[C@@H]2NCCc1ccccc1O,-5,0.59,
O=C(CCc1cccnc1)N1CCO[C@H](C(=O)N2CCCCCCC2)C1,-16,3.14,
CCS(=O)(=O)N1CC(=O)N(c2cc(C)ccc2OC)[C@](C)(C(=O)NC2CCCCCC2)C1,-13,1.65,
Cc1ccc(CN(CCO)C(=O)NCc2n[nH]c3c2CCC3)s1,-20,2.12,
O=C([C@@H]1COCCN1)N1CCN(c2ccccc2F)CC1,-6,0.76,
Cc1ccc(CC(OC(=O)C2CCCN(C(N)=O)C2)C2CC2)cc1 (centres undefined),-5,0.49,
COCCN(C[C@@H]1CC=CCC1)C(=O)C1CCS(=O)(=O)CC1,3,-0.43,
CC(C)n1nccc1[C@H]1OCC[C@@H]1C(=O)N1CCCC(S(C)(=O)=O)C1 (some centres undefined),-8,1.27,
CC(C(=O)N[C@@H](C)C(=O)NCCc1c[nH]c2ccccc12)n1cnc2ccccc2c1=O (some centres undefined),-5,0.65,
O=C(NCC1(c2ccccn2)CCC1)N1CCC2(CCC2)S(=O)(=O)CC1,-8,1.51,
c1ccc(C/N=C2\CCc3ccccc3N2)cc1,,,-12% and 2%
CS(=O)(=O)NC[C@@H](c1ccco1)N1CCCC1,-7,1.3,
Cc1cccn2cc(CS(=O)(=O)[C@@H](C)C(=O)NC3CCCC3)nc12,3,-0.41,
CC(=O)N1C(c2ccccc2)CC(O)C(c2ccccc2)C1c1ccccc1 (centres undefined),-31,3.69,
Cc1ccc2c(=O)n(CC[C@H]3CCCCN3C)cnc2c1C,-7,1.32,
Cc1ccc(NC(=O)N2CCC(n3cnc4cccnc43)CC2)c(C)c1,-6,0.85,
CCS(=O)(=O)Oc1ccccc1CN(CC1CC1)C(=O)NC(C)(C)C,3,-0.44,
Cc1cc(N2CCCC2=O)c(NC(=O)CCc2ccccc2)cc1NC(=O)CCc1ccccc1,4,-0.5,
O=C(N[C@H]1COCC[C@@H]1O)c1ccc(CN2CCc3ccccc3C2)o1,-13,1.27,
O=C(Nc1ccc(CCN2CCNCC2)cc1)c1ccccc1,-11,1.53,
CCC(CC)C1CC(NC(=O)NCc2cscn2)CCO1 (centres undefined),-10,1.18,
CCc1cc2c(N3C[C@H]4CN(C(=O)C5CCNC5=O)C[C@@]4(C)C3)ncnc2s1 (some centres undefined),1,-0.17,
O=S(=O)(NC[C@H](O)c1ccccc1Cl)c1cncc(F)c1,-8,1.14,
CCCCCOCC(=O)N1CCS(=O)(=O)C2CCCC21 (centres undefined),-9,1.43,
